Experimental data as given in the supplement of paper PMC10369915.
Some of the results follow. No stated cut-off is given here; in the data, active = 3.2 or more and inactive = the rest. Only a few entries rise above the background.

Columns and labels:
Test in all cases: enrichment score (SH2-bound / input frequency) (ratio); bacterial display of known human phosphotyrosine sites (pTyr-Var adds point mutants) read by sequencing; higher = stronger binding; tyrosines were phosphorylated by kinases first
Details in all cases: peptide library: Human pTyr
SHP2 C-SH2 domain E139D = biological target: SHP2 C-SH2 domain E139D
[1] = biological target: SHP2 C-SH2 domain wild-type
SHP2 N-SH2 domain L43F = biological target: SHP2 N-SH2 domain L43F
SHP2 N-SH2 domain T42A = biological target: SHP2 N-SH2 domain T42A
SHP2 N-SH2 domain T52S = biological target: SHP2 N-SH2 domain T52S
[2] = biological target: SHP2 N-SH2 domain wild-type
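Further: displayed peptides selected on beads carrying the immobilized SH2 domain, with library peptides lacking any tyrosine serving as negative controls.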

| Binder | enrichment score (SHP2 C-SH2 domain E139D) | enrichment score [1] | enrichment score (SHP2 N-SH2 domain L43F) | enrichment score (SHP2 N-SH2 domain T42A) | enrichment score (SHP2 N-SH2 domain T52S) | enrichment score [2] |
| --- | --- | --- | --- | --- | --- | --- |
| STPPGESYFGVSSLQ [SRRM2_HUMAN_1049] | inactive: 0.696 | inactive: 0.538 | inactive: 0.667 | inactive: 0.551 | inactive: 0.619 | inactive: 0.579 |
| EDPPQEEYQEYEPEA [SNCB_HUMAN_127] | inactive: 1.39 | inactive: 1.29 | inactive: 1.39 | inactive: 1.16 | inactive: 1.38 | inactive: 1.41 |
| EEEKEETYDDIDGFD [SKAP1_HUMAN_232] | inactive: 1.24 | inactive: 1.02 | inactive: 1.06 | inactive: 0.958 | inactive: 1.06 | inactive: 1.42 |
| NSFNNPAYYVLEGVP [SHIP2_HUMAN_986] | inactive: 0.891 | inactive: 0.696 | inactive: 0.727 | inactive: 0.494 | inactive: 0.596 | inactive: 0.577 |
| TEIINPNYMGVGPFG [SHIP1_HUMAN_915] | inactive: 0.513 | inactive: 0.443 | inactive: 0.541 | inactive: 0.637 | inactive: 0.461 | inactive: 0.485 |
| ESARNLEYVSVSPTN [SLAF6_HUMAN_274] | inactive: 1.02 | inactive: 0.534 | inactive: 0.671 | inactive: 0.724 | inactive: 0.755 | inactive: 0.458 |
| KGKFGNVYLAREKQS [AURKA_HUMAN_148] | inactive: 2.92 | inactive: 2.96 | inactive: 2.53 | inactive: 2.44 | inactive: 3.12 | active: 4.15 |
| SETPGYIYSSNFHAV [SRBS1_HUMAN_654] | inactive: 1.33 | inactive: 1.3 | inactive: 1.12 | inactive: 0.955 | inactive: 1.34 | inactive: 1.07 |
| DEARNVFYELEDVRD [SRCN1_HUMAN_113] | inactive: 1.15 | inactive: 1.1 | inactive: 1.08 | inactive: 1.09 | inactive: 1.13 | inactive: 1.17 |
| EMPSEEGYQDAEPEA [SNCA_HUMAN_133_YA] | inactive: 1.25 | inactive: 1.1 | inactive: 1.12 | inactive: 0.964 | inactive: 1.01 | inactive: 1.24 |
| EKIWMTGYEDYRHAP [SPRE2_HUMAN_228] | inactive: 0.882 | inactive: 0.774 | inactive: 0.687 | inactive: 0.722 | inactive: 0.731 | inactive: 0.734 |
| DSLEHNAYNSIPGKE [SHC2_HUMAN_339_YA] | inactive: 0.658 | inactive: 0.537 | inactive: 0.602 | inactive: 0.667 | inactive: 0.695 | inactive: 0.629 |
| EEPPDHQYANDFPGK [SHC1_HUMAN_349_YA] | inactive: 0.597 | inactive: 0.585 | inactive: 0.633 | inactive: 0.728 | inactive: 0.675 | inactive: 0.591 |
| YTTQLDDYLGGSPVQ [AVIL_HUMAN_85] | inactive: 0.592 | inactive: 0.591 | inactive: 0.61 | inactive: 0.425 | inactive: 0.38 | inactive: 0.642 |
| CRTSGSVYITLKKYD [SRP14_HUMAN_27] | inactive: 1.73 | inactive: 1.36 | inactive: 1.43 | inactive: 1.25 | inactive: 1.9 | inactive: 2.27 |
| EKIWMTGYEDARHAP [SPRE2_HUMAN_228_YA] | inactive: 0.691 | inactive: 0.618 | inactive: 0.63 | inactive: 0.675 | inactive: 0.603 | inactive: 0.576 |
| GDGSDHPYYNSIPSK [SHC3_HUMAN_341] | inactive: 0.829 | inactive: 0.644 | inactive: 0.564 | inactive: 0.555 | inactive: 0.775 | inactive: 0.666 |
| EEPVNTVYSEVQFAD [SLAF5_HUMAN_316] | inactive: 2.14 | active: 4.29 | inactive: 2.55 | active: 3.22 | inactive: 1.99 | inactive: 1.15 |
